Assay results: the supplement of paper PMC4723716
± gives the uncertainty stated by the source. In all, about 9,900 compounds were measured (“viability index relative to DMSO control”: median about 1, lowest 2% from about 0.85 on). This is one part of the list.

Each molecule was assayed on Plasmodium falciparum NF54 stage V gametocytes (assay: viability index relative to DMSO control (fraction); higher = less gametocyte killing). Details: 2.5 µM, library set: Broad Institute DOS, incubation time: 72 h.
Outline: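 In 1,536-well plates, 10 µl of serum-free medium holding P. falciparum NF54 stage V gametocytes (0.75% gametocytemia, 1.25% hematocrit) received compound at 2.5 µM for 72 hr at 37°C in low oxygen. After one to two hours with 3 µl of 2.5 µM MitoTracker Red CMXRos containing 0.13% saponin, red particles of 20–70 µm2 were counted in a single field per well. Viability index is reported as the particle count over the plate mean of wells treated with solvent only.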
With `CN(C)C(=O)C[C@@H]1CC[C@H]2[C@@H](COC[C@@H](O)CN2C(=O)C2CCOCC2)O1` the viability index was 1.1 ± 0.016. In the case of `CCCNC(=O)N1[C@H](C#N)[C@@H](c2ccc(-c3ccccc3F)cc2)[C@H]1CO`, the viability index is reported as 0.974 ± 0.074. `CN(C)C(=O)c1cccc(-c2ccc([C@H]3[C@@H](CO)N4C(=O)CN(C(=O)C5CCC5)C[C@@H]34)cc2)c1` was tested, and the viability index was 1.123 ± 0.0072. `Cc1ccc(NC(=O)Nc2ccc3c(c2)C(=O)N(C)[C@@H]2CC[C@@H](CC(=O)NCC(F)(F)F)O[C@@H]2CO3)cc1` showed a viability index of 0.998 ± 0.19. With `CCS(=O)(=O)NCC[C@@H]1CC[C@@H](NC(=O)Nc2cc(Cl)cc(Cl)c2)[C@H](CO)O1` the viability index was 1.09 ± 0.04. For `N#Cc1ccc(-c2ccc3c(c2)[C@H]2[C@H](CCN2C(=O)c2cccnc2)[C@@H](CO)N3)cc1`, the viability index was 1.15 ± 0.077. `C[C@H]1CN([C@@H](C)CO)C(=O)CCCn2nncc2CO[C@H]1CN(C)C(=O)CCC(F)(F)F` gave a viability index of 1.089 ± 0.0015. For `COCC(=O)N1C[C@@H](C)[C@H](OC)CN(C)C(=O)c2ccc(NC(=O)Nc3cccc(F)c3)cc2OC[C@@H]1C`, the viability index was 1.032 ± 0.0043. In the case of `C[C@H](O)C#Cc1ccc([C@H]2[C@@H](CO)N3CCCCN(C(=O)c4ccc5c(c4)OCO5)C[C@@H]23)cc1`, the viability index is reported as 1.056 ± 0.0023. Molecule `C[C@H](CO)N1C[C@H](C)[C@H](CN(C)S(=O)(=O)c2cccs2)Oc2ccc(NC(=O)CCCCCC(=O)Nc3ccccc3N)cc2CC1=O` has a viability index of 0.959 ± 0.048. With `COc1ccc(NC(=O)N(C)C[C@H]2Oc3c(NS(=O)(=O)c4c(C)noc4C)cccc3C(=O)N([C@H](C)CO)C[C@H]2C)cc1` the viability index was 0.934 ± 0.036. `CN(C)CCCNC(=O)C[C@H]1CC[C@@H]2[C@H](COC[C@@H](O)CN2Cc2cccc(C(F)(F)F)c2)O1` showed a viability index of 1.09 ± 0.019. `C[C@@H]1CN([C@@H](C)CO)C(=O)c2cccc(NC(=O)c3ccc(-c4nccs4)cc3)c2O[C@H]1CN(C)C(=O)Nc1ccc(C(F)(F)F)cc1` was tested, and the viability index was 1.011 ± 0.0069. Work on `CCCNC(=O)Nc1ccc2c(c1)C(=O)N(C)C[C@@H](OC)[C@H](C)CN(C)[C@H](C)CO2` yielded a viability index of 1.115 ± 0.0071. `CC(C)CC#Cc1ccc([C@@H]2[C@@H](CO)N3CCCCN(C(=O)Nc4ccccc4)C[C@@H]23)cc1` showed a viability index of 1 ± 0.15. `CC[C@@H]1C/C=C\C[C@H](c2ccc(OC)cc2OC)NC(=O)[C@@H](C)CC(=O)N1` was tested, and the viability index was 1.02 ± 0.039. With `COc1ccc2c3c([nH]c2c1)[C@H](CO)N(C[C@]31CN(CC2CCOCC2)C1)S(C)(=O)=O` the viability index was 1.01 ± 0.08. For `O=C(Cc1cccnc1)N1[C@@H](CO)[C@@H](c2ccccc2)[C@@H]1CNCC1CCC1`, the viability index was 1.03 ± 0.033. In the case of `O=C(C[C@@H]1CC[C@@H]2[C@H](COC[C@H](O)CN2Cc2nccs2)O1)NCc1ccccc1Cl`, the viability index is reported as 1.05 ± 0.048. In the case of `CCCNC(=O)Nc1ccc2c(c1)OC[C@@H](C)N(C(=O)C1CCOCC1)C[C@H](C)[C@@H](OC)CN(C)C2=O`, the viability index is reported as 1.06 ± 0.011. Molecule `CN1C(=O)c2cc(NC(=O)Nc3ccccc3Cl)ccc2OC[C@H]2O[C@H](CC(=O)NCCCN3CCOCC3)CC[C@@H]21` has a viability index of 1.15 ± 0.14. For `C[C@H]1CN([C@@H](C)CO)C(=O)CCCn2nncc2CO[C@@H]1CN(C)C(=O)Nc1ccc2c(c1)OCCO2`, the viability index was 1.03 ± 0.028. With `O=C(CC1CC1)N1CC(=O)N2[C@H](C1)[C@H](c1ccc(C#Cc3cccc(F)c3)cc1)[C@@H]2CO` the viability index was 0.974 ± 0.063. `CC(C)NC(=O)Nc1ccc2c(c1)C(=O)N(C)[C@H]1CC[C@H](CC(=O)NCc3ccc(F)cc3)O[C@@H]1CO2` showed a viability index of 1 ± 0.024. Work on `COc1ccc2c3c([nH]c2c1)[C@@H](CO)N(Cc1ccccc1)C[C@]31CN(C1)C(=O)Nc1cccc(F)c1` yielded a viability index of 1.011 ± 0.0031. `CO[C@@H](CN(C)Cc1nccs1)[C@@H](C)CN([C@H](C)CO)S(=O)(=O)c1ccc(F)cc1` gave a viability index of 1.07 ± 0.043. With `C[C@@H]1CN([C@H](C)CO)C(=O)CCCn2nncc2CO[C@@H]1CN(C)C(=O)Nc1ccnc(N2CCOCC2)c1` the viability index was 1.04 ± 0.051. `CC(C)[C@H]1C/C=C/C[C@H](C)Oc2ccccc2C(=O)N(C)[C@H](C(C)C)C(=O)N1.CC(C)[C@H]1C/C=C\C[C@H](C)Oc2ccccc2C(=O)N(C)[C@H](C(C)C)C(=O)N1` gave a viability index of 0.998 ± 0.014. Work on `O=C(C[C@H]1C[C@@H]2c3cc(NS(=O)(=O)c4ccccc4)ccc3O[C@@H]2[C@@H](CO)O1)NCC(F)(F)F` yielded a viability index of 1.1 ± 0.011. Work on `COc1ccc2c3c([nH]c2c1)[C@@H](CO)N(C[C@]31CN(C1)C(=O)CC1CC1)C(=O)c1cccc(F)c1` yielded a viability index of 1.05 ± 0.03. Work on `O=C(C[C@H]1CC[C@@H]2NC[C@@H](O)COC[C@H]2O1)NCc1ccc2c(c1)OCO2` yielded a viability index of 1.09 ± 0.031. `COc1ccccc1CNC(=O)C[C@H]1CC[C@@H]2[C@H](COC[C@H](O)CN2Cc2ccc3c(c2)OCO3)O1` gave a viability index of 1.14 ± 0.06. Work on `CN(C)C(=O)c1ccc(-c2ccccc2[C@H]2[C@H](C#N)N(C(=O)C3CC3)[C@H]2CO)cc1` yielded a viability index of 1.17 ± 0.11. For `CNC[C@H]1OCCCC[C@@H](C)Oc2ccc(NS(=O)(=O)c3ccc(F)cc3)cc2C(=O)N([C@@H](C)CO)C[C@H]1C`, the viability index was 1.09 ± 0.025. For `N#Cc1cccc(-c2ccc([C@H]3[C@H]4CNC[C@@H]3N4C(=O)Nc3cccc(F)c3)cc2)c1`, the viability index was 1.02 ± 0.066. `C[C@H](NC(=O)C[C@H]1C[C@H]2c3cc(NS(=O)(=O)c4ccc(F)cc4)ccc3O[C@H]2[C@H](CO)O1)c1ccccc1` showed a viability index of 1.09 ± 0.033. In the case of `CO[C@H](CN(C)S(=O)(=O)c1ccc(C)cc1)[C@@H](C)CN([C@H](C)CO)S(=O)(=O)c1cccc(Cl)c1`, the viability index is reported as 1.019 ± 0.004. In the case of `O=C(Nc1cccc(F)c1)N1CCCCN2[C@H](CO)[C@H](c3ccc(C#Cc4cccnc4)cc3)[C@H]2C1`, the viability index is reported as 0.848 ± 0.034. `Cc1noc(C)c1NC(=O)Nc1ccc2c(c1)C(=O)N([C@H](C)CO)C[C@@H](C)[C@@H](CN(C)S(=O)(=O)c1cccs1)OCCCC[C@H](C)O2` gave a viability index of 1.03 ± 0.16. `CO[C@@H]1CN(C)C(=O)c2ccc(NC(=O)Nc3ccccc3Cl)cc2OC[C@H](C)NC[C@H]1C` gave a viability index of 1.06 ± 0.018. Molecule `COc1ccccc1-c1ccc([C@H]2[C@@H](CO)N3CCCCN(C(=O)c4cccnc4)C[C@@H]23)cc1` has a viability index of 1.05 ± 0.039. `C/C=C/c1ccc([C@@H]2[C@@H](CO)N(c3nc(CC)cs3)[C@H]2C#N)cc1` was tested, and the viability index was 1.043 ± 0.0025. Work on `O=C(C1CCCC1)N1CC2(C1)[C@@H](c1ccccc1)[C@H](CO)N2Cc1ccc(Cl)cc1` yielded a viability index of 1.113 ± 0.0016. Work on `COc1cccc(C(=O)Nc2ccc3c(c2)C(=O)N(C)[C@@H]2CC[C@H](CC(=O)N[C@H](C)c4ccccc4)O[C@H]2CO3)c1` yielded a viability index of 1.07 ± 0.1. With `CN1CCN(C(=O)C[C@@H]2CC[C@@H]3[C@@H](COc4ccc(NC(=O)c5cccs5)cc4C(=O)N3C)O2)CC1` the viability index was 1.03 ± 0.073. `COc1ccc(CNC(=O)C[C@H]2C=C[C@@H](NC(=O)c3cccc(F)c3)[C@@H](CO)O2)cc1` showed a viability index of 0.923 ± 0.14. `CC(C)C#Cc1ccc([C@H]2[C@@H](CO)N3C(=O)CN(C(=O)NC4CCCC4)C[C@@H]23)cc1` was tested, and the viability index was 1.06 ± 0.029. `COCC(=O)N1CC(=O)N2[C@H](CO)[C@H](c3ccc(C#CC4CC4)cc3)[C@H]2C1` showed a viability index of 1.11 ± 0.027. With `C[C@H]1CN([C@@H](C)CO)C(=O)c2ccccc2-c2ccccc2CO[C@@H]1CN(C)C(=O)Nc1cccc(Cl)c1Cl` the viability index was 0.947 ± 0.091. For `CC(C)NC(=O)Nc1ccc2c(c1)C(=O)N([C@@H](C)CO)C[C@H](C)[C@H](CN(C)C(=O)C1CCCCC1)OCCCC[C@H](C)O2`, the viability index was 1.04 ± 0.021. `COc1ccccc1CN1C[C@@H]2N[C@H](C1)[C@@H]2c1ccc(-c2ccncc2)cc1` showed a viability index of 1.05 ± 0.11. With `C/C=C/c1ccc([C@@H]2[C@H](CO)N(C(=O)c3cnccn3)C23CN(C(=O)C2CCC2)C3)cc1` the viability index was 1.12 ± 0.095. `O=C1CNC[C@H]2[C@H](c3ccc(C#CC4CCCCC4)cc3)[C@@H](CO)N12` gave a viability index of 1.03 ± 0.076. With `CCC(=O)N1[C@H](C(=O)NCc2ccc(F)cc2)[C@@H](CO)[C@@H]2Cn3c(ccc(C4=CCCCC4)c3=O)[C@@H]21` the viability index was 1.08 ± 0.047. In the case of `O=C(N[C@H]1CC[C@H](CCn2cc(-c3ccccc3F)nn2)O[C@H]1CO)c1ccc2c(c1)OCO2`, the viability index is reported as 1.1 ± 0.15. `CNC[C@@H]1OCc2cn(nn2)CCCC(=O)N([C@H](C)CO)C[C@@H]1C` gave a viability index of 1.06 ± 0.02. `C[C@@H]1CN([C@H](C)CO)S(=O)(=O)c2ccc(-c3cccc(C#N)c3)cc2O[C@@H]1CN(C)C(=O)c1ccccc1` showed a viability index of 0.996 ± 0.05. Work on `CO[C@@H]1CN(C)C(=O)c2cc(NC(=O)C3CC3)ccc2OC[C@H](C)N(Cc2cc(F)ccc2F)C[C@H]1C` yielded a viability index of 1.04 ± 0.039. Work on `CCNC(=O)c1cc2c(c(-c3cccc(-c4cncnc4)c3)n1)[C@H](CCO)N(C(C)=O)C2` yielded a viability index of 0.926 ± 0.03. In the case of `CN1C(=O)c2cc(NC(=O)Nc3ccc(Cl)cc3)ccc2OC[C@H]2O[C@H](CC(=O)NCCN3CCCCC3)CC[C@H]21`, the viability index is reported as 1.05 ± 0.041. With `O=C(Nc1ccccc1Cl)N1C[C@@H]2[C@H](c3ccccc31)[C@@H](CO)N2C(=O)c1cccnc1` the viability index was 1.02 ± 0.013. `COc1ccc(NC(=O)Nc2ccc3c(c2)[C@H]2C[C@H](CC(=O)NCC(F)(F)F)O[C@H](CO)[C@H]2O3)cc1` was tested, and the viability index was 1.05 ± 0.036. With `Cc1noc(C)c1S(=O)(=O)N(C)C[C@H]1OCCCC[C@H](C)Oc2ccc(NS(=O)(=O)c3cn(C)cn3)cc2C(=O)N([C@H](C)CO)C[C@@H]1C` the viability index was 1.08 ± 0.019. `O=C(CC(F)(F)F)N1C[C@@H]2[C@H](c3ccccc31)[C@@H](CO)N2C(=O)c1ccncc1` was tested, and the viability index was 1.08 ± 0.011. Molecule `O=C(Nc1ccc2c(c1)[C@@H]1C[C@@H](CC(=O)N3CCc4ccccc4C3)O[C@H](CO)[C@@H]1O2)c1ccc2c(c1)OCO2` has a viability index of 1.04 ± 0.054. With `COCC(=O)N1[C@H](C(=O)NCc2ccccc2)[C@@H](CO)[C@@H]2Cn3c(cccc3=O)[C@@H]21` the viability index was 1.02 ± 0.029. Molecule `O=C(C[C@H]1CC[C@@H]2[C@H](COC[C@H](O)CN2S(=O)(=O)c2cccc(Cl)c2)O1)N1CCOCC1` has a viability index of 1.06 ± 0.036. `COc1ccc(S(=O)(=O)Nc2cccc3c2O[C@@H](CN(C)CC2CCCCC2)[C@@H](C)CN([C@H](C)CO)C3=O)cc1` showed a viability index of 0.955 ± 0.087. `O=C(NC1CCCCC1)N1CC2(C1)[C@H](c1ccccc1)[C@H](CO)N2S(=O)(=O)Cc1ccccc1` showed a viability index of 1.03 ± 0.013.
